Consider 26 molecules from US9873709B2 (priority 2013, dated 2018).

By Ki is commonly meant a dissociation constant, usually derived from enzyme kinetics or from competition with a known ligand.

This experiment concerns the target isolated recombinant JAK1 kinase domain (Homo sapiens (Human), UniProt P23458). As to conditions: read-out: JAK1 Ki; isolated recombinant JAK1 kinase domain, 25 μM ATP.
Take `CC(C)N1CCC(N(C)C(=O)c2ccc(Nc3nc4c(C5=CCN(C(=O)CCC(F)(F)F)CC5)cccn4n3)cc2)CC1` [Example 2-330, N-(1-isopropyl-4-piperidyl)-N-methyl-4-[[8-[1-(4,4,4-trifluorobutanoyl)-3,6-dihydro-2H-pyridin-4-yl]-[1,2,4]triazolo[1,5-a]pyridin-2-yl]amino]benzamide]: the Ki is 1.62 nM.

For `COCCN1CCN(C(=O)c2ccc(Nc3nc4c(C5=CCN(C(=O)CCC(F)(F)F)CC5)cccn4n3)cc2)CC1` [Example 2-331, 4,4,4-trifluoro-1-[4-[2-[4-[4-(2-methoxyethyl)piperazine-1-carbonyl]anilino]-[1,2,4]triazolo[1,5-a]pyridin-8-yl]-3,6-dihydro-2H-pyridin-1-yl]butan-1-one], the Ki worked out at 1.18 nM. The result for `CN1C(C)(C)CC(NC(=O)c2ccc(Nc3nc4c(C5=CCN(C(=O)CCC(F)(F)F)CC5)cccn4n3)cc2)CC1(C)C` [Example 2-332, N-(1,2,2,6,6-pentamethyl-4-piperidyl)-4-[[8-[1-(4,4,4-trifluorobutanoyl)-3,6-dihydro-2H-pyridin-4-yl]-[1,2,4]triazolo[1,5-a]pyridin-2-yl]amino]benzamide] reads 0.51 nM.

For `CC(C)(CN1CCOCC1)NC(=O)c1ccc(Nc2nc3c(C4=CCN(C(=O)CCC(F)(F)F)CC4)cccn3n2)cc1` [Example 2-333, N-(1,1-dimethyl-2-morpholino-ethyl)-4-[[8-[1-(4,4,4-trifluorobutanoyl)-3,6-dihydro-2H-pyridin-4-yl]-[1,2,4]triazolo[1,5-a]pyridin-2-yl]amino]benzamide], the Ki was 1.01 nM.

`CC(CN1CCCCC1)NC(=O)c1ccc(Nc2nc3c(C4=CCN(C(=O)CCC(F)(F)F)CC4)cccn3n2)cc1` (centres unmarked) [Example 2-334, N-[1-methyl-2-(1-piperidyl)ethyl]-4-[[8-[1-(4,4,4-trifluorobutanoyl)-3,6-dihydro-2H-pyridin-4-yl]-[1,2,4]triazolo[1,5-a]pyridin-2-yl]amino]benzamide]: the Ki was determined as 1.05 nM. Regarding `CN1CCCC(CNC(=O)c2ccc(Nc3nc4c(C5=CCN(C(=O)CCC(F)(F)F)CC5)cccn4n3)cc2)C1` (centres unmarked) [Example 2-337, N-[(1-methyl-3-piperidyl)methyl]-4-[[8-[1-(4,4,4-trifluorobutanoyl)-3,6-dihydro-2H-pyridin-4-yl]-[1,2,4]triazolo[1,5-a]pyridin-2-yl]amino]benzamide], the Ki came to 0.57 nM. `O=C(CCC(F)(F)F)N1CC=C(c2cccn3nc(Nc4ccc(C(=O)N5CCC(c6ccncc6)C5)cc4)nc23)CC1` (centres unmarked) [Example 2-338, 4,4,4-trifluoro-1-[4-[2-[4-[3-(4-pyridyl)pyrrolidine-1-carbonyl]anilino]-[1,2,4]triazolo[1,5-a]pyridin-8-yl]-3,6-dihydro-2H-pyridin-1-yl]butan-1-one]: the Ki was found to be 0.4 nM. As for `O=C(CCC(F)(F)F)N1CC=C(c2cccn3nc(Nc4ccc(C(=O)N5CCCC(N6CCOCC6)C5)cc4)nc23)CC1` (centres unmarked) [Example 2-339, 4,4,4-trifluoro-1-[4-[2-[4-(3-morpholinopiperidine-1-carbonyl)anilino]-[1,2,4]triazolo[1,5-a]pyridin-8-yl]-3,6-dihydro-2H-pyridin-1-yl]butan-1-one], the Ki was 1.16 nM. As to `O=C(CCC(F)(F)F)N1CC=C(c2cccn3nc(Nc4ccc(C(=O)N5CCN(CC6CCCO6)CC5)cc4)nc23)CC1` (centres unmarked) [Example 2-340, 4,4,4-trifluoro-1-[4-[2-[4-[4-(tetrahydrofuran-2-ylmethyl)piperazine-1-carbonyl]anilino]-[1,2,4]triazolo[1,5-a]pyridin-8-yl]-3,6-dihydro-2H-pyridin-1-yl]butan-1-one], the Ki came out at 0.95 nM. In the case of `O=C(CCC(F)(F)F)N1CC=C(c2cccn3nc(Nc4ccc(C(=O)N5CCCC(c6ccccn6)C5)cc4)nc23)CC1` (centres unmarked) [Example 2-341, 4,4,4-trifluoro-1-[4-[2-[4-[3-(2-pyridyl)piperidine-1-carbonyl]anilino]-[1,2,4]triazolo[1,5-a]pyridin-8-yl]-3,6-dihydro-2H-pyridin-1-yl]butan-1-one] it was 0.84 nM.

On to `CNC(=O)C1CN(C(=O)c2ccc(Nc3nc4c(C5=CCN(C(=O)CCC(F)(F)F)CC5)cccn4n3)cc2)CCN1Cc1ccccc1` (centres unmarked) [Example 2-342, 1-benzyl-N-methyl-4-[4-[[8-[1-(4,4,4-trifluorobutanoyl)-3,6-dihydro-2H-pyridin-4-yl]-[1,2,4]triazolo[1,5-a]pyridin-2-yl]amino]benzoyl] piperazine-2-carboxamide], for which the Ki is 0.74 nM.

As for `O=C(NCCc1ccncc1)c1ccc(Nc2nc3c(C4=CCN(C(=O)CCC(F)(F)F)CC4)cccn3n2)cc1` [Example 2-343, N-[2-(4-pyridyl)ethyl]-4-[[8-[1-(4,4,4-trifluorobutanoyl)-3,6-dihydro-2H-pyridin-4-yl]-[1,2,4]triazolo[1,5-a]pyridin-2-yl]amino]benzamide], the Ki amounted to 0.61 nM.

`CC(=O)N1CC=C(c2cccn3nc(Nc4ccc(C(=O)N(C)C5CCN(C)CC5)cc4)nc23)CC1` [Example 2-344, 4-[[8-(1-acetyl-3,6-dihydro-2H-pyridin-4-yl)-[1,2,4]triazolo[1,5-a]pyridin-2-yl]amino]-N-methyl-N-(1-methyI-4-piperidyl)benzamide]: the Ki was 19.8 nM. Regarding `CN1CCC(N(C)C(=O)c2ccc(Nc3nc4c(C5=CCN(C(=O)OC6CCOC6)CC5)cccn4n3)cc2)CC1` (centres unmarked) [Example 2-346, tetrahydrofuran-3-yl 4-[2-[4-[methyl-(1-methyl-4-piperidyl)carbamoyl]anilino]-[1,2,4]triazolo[1,5-a]pyridin-8-yl]-3,6-dihydro-2H-pyridine-1-carboxylate], the Ki is 4.52 nM. On to `CN1CCC(N(C)C(=O)c2ccc(Nc3nc4c(C5=CCN(C(=O)[C@H]6CC[C@H](C#N)CC6)CC5)cccn4n3)cc2)CC1` [Example 2-350, 4-[[8-[1-(4-cyanocyclohexanecarbonyl)-3,6-dihydro-2H-pyridin-4-yl]-[1,2,4]triazolo[1,5-a]pyridin-2-yl]amino]-N-methyl-N-(1-methyl-4-piperidyl)benzamide], for which the Ki was found to be 17.6 nM. For the molecule `CN1CCC(N(C)C(=O)c2ccc(Nc3nc4c(C5=CCN(C(=O)OCC6CC6)CC5)cccn4n3)cc2)CC1` [Example 2-353, cyclopropylmethyl 4-[2-[4-[methyl-(1-methyl-4-piperidyl)carbamoyl]anilino]-[1,2,4]triazolo[1,5-a]pyridin-8-yl]-3,6-dihydro-2H-pyridine-1-carboxylate], the inhibitory constant (Ki) was 2.62 nM. In the case of `CCOC(=O)N1CC=C(c2cccn3nc(Nc4ccc(C(=O)N5CCN(C)CC5)cc4)nc23)CC1` [Example 2-354, ethyl 4-[2-[4-(4-methylpiperazine-1-carbonyl)anilino]-[1,2,4]triazolo[1,5-a]pyridin-8-yl]-3,6-dihydro-2H-pyridine-1-carboxylate], the Ki stood at 3.85 nM.

`CCOC(=O)N1CC=C(c2cccn3nc(Nc4ccc(C(=O)NC(C)CN(C)C)cc4)nc23)CC1` (centres unmarked) [Example 2-355, ethyl 4-[2-[4-[[2-(dimethylamino)-1-methyl-ethyl]carbamoyl]anilino]-[1,2,4]triazolo[1,5-a]pyridin-8-yl]-3,6-dihydro-2H-pyridine-1-carboxylate]: the Ki was 3.02 nM. With `CCOC(=O)N1CC=C(c2cccn3nc(Nc4ccc(C(=O)N5CCCNCC5)cc4)nc23)CC1` [Example 2-356, ethyl 4-[2-[4-(1,4-diazepane-1-carbonyl)anilino]-[1,2,4]triazolo[1,5-a]pyridin-8-yl]-3,6-dihydro-2H-pyridine-1-carboxylate], the inhibitory constant (Ki) worked out at 6.13 nM. In the case of `CCOC(=O)N1CC=C(c2cccn3nc(Nc4ccc(C(=O)N5CCC(NC)C5)cc4)nc23)CC1` (centres unmarked) [Example 2-357, ethyl 4-[2-[4-[3-(methylamino)pyrrolidine-1-carbonyl]anilino]-[1,2,4]triazolo[1,5-a]pyridin-8-yl]-3,6-dihydro-2H-pyridine-1-carboxylate], the Ki worked out at 3.93 nM.

For the molecule `CCOC(=O)N1CC=C(c2cccn3nc(Nc4ccc(C(=O)N5CCC(c6ccccn6)CC5)cc4)nc23)CC1` [Example 2-358, ethyl 4-[2-[4-[4-(2-pyridyl)piperidine-1-carbonyl]anilino]-[1,2,4]triazolo[1,5-a]pyridin-8-yl]-3,6-dihydro-2H-pyridine-1-carboxylate], the Ki worked out at 1.99 nM. `CCOC(=O)N1CC=C(c2cccn3nc(Nc4ccc(C(=O)N(C)Cc5cccc6cccnc56)cc4)nc23)CC1` [Example 2-359, ethyl 4-[2-[4-[methyl(8-quinolylmethyl)carbamoyl]anilino]-[1,2,4]triazolo[1,5-a]pyridin-8-yl]-3,6-dihydro-2H-pyridine-1-carboxylate]: the Ki was 6.11 nM. `CCOC(=O)N1CC=C(c2cccn3nc(Nc4ccc(C(=O)NC5CCNCC5)cc4)nc23)CC1` [Example 2-360, ethyl 4-[2-[4-(4-piperidylcarbamoyl)anilino]-[1,2,4]triazolo[1,5-a]pyridin-8-yl]-3,6-dihydro-2H-pyridine-1-carboxylate]: the Ki turned out to be 1.32 nM. In the case of `CCOC(=O)N1CC=C(c2cccn3nc(Nc4ccc(C(=O)N(C)Cc5ccncc5)cc4)nc23)CC1` [Example 2-361, ethyl 4-[2-[4-[methyl(4-pyridylmethyl)carbamoyl]anilino]-[1,2,4]triazolo[1,5-a]pyridin-8-yl]-3,6-dihydro-2H-pyridine-1-carboxylate] it was 1.7 nM; in that of `CCOC(=O)N1CC=C(c2cccn3nc(Nc4ccc(C(=O)NCCC5CCCN5)cc4)nc23)CC1` (centres unmarked) [Example 2-362, ethyl 4-[2-[4-(2-pyrrolidin-2-ylethylcarbamoyl)anilino]-[1,2,4]triazolo[1,5-a]pyridin-8-yl]-3,6-dihydro-2H-pyridine-1-carboxylate], 1.75 nM.

As for `CCOC(=O)N1CC=C(c2cccn3nc(Nc4ccc(C(=O)N5CCN(CC6CCCO6)CC5)cc4)nc23)CC1` (centres unmarked) [Example 2-363, ethyl 4-[2-[4-[4-(tetrahydrofuran-2-ylmethyl)piperazine-1-carbonyl]anilino]-[1,2,4]triazolo[1,5-a]pyridin-8-yl]-3,6-dihydro-2H-pyridine-1-carboxylate], the Ki turned out to be 2.67 nM.
